Assay results published in patent US10299477B2 (priority 2015, dated 2019).

Legend:
Assay type in all cases: in vivo
Botrytis cinerea = assay: Test Example B: Gray mold on tomato; settings: for Test B control value (gray mold on tomato): preventive, control value class; for Test B (control value class, gray mold on tomato): in vivo
Text: [Test Example B] Gray Mold on Tomato
Seeds of a test plant (tomato variety: Oogata Fukuju) were planted followed by cultivating until three to five first leaves (true leaves) appeared.

Alternaia brassicicola = assay: Test Example C: Alternaria sooty spot on cabbage; settings: for Test C control value (Alternaria sooty spot on cabbage): preventive, control value class; for Test C (control value class) / Test C control value: Alternaria sooty spot on cabbage; for Test C (control value class, Alternaria sooty spot on cabbage): in vivo
Text: [Test Example C] Alternaria Sooty Spot on Cabbage
Seeds of a test plant (cabbage variety: Shikidori) were planted followed by cultivating until the cotyledons extended.

[1] = test system: Blumeria graminis f sp. hordei; assay: Test Example D: Powdery mildew on barley; settings: for Test D control value (powdery mildew on barley): preventive, control value class; for Test D (control value class, powdery mildew on barley): in vivo
Text: [Test Example D] Powdery Mildew on Barley
After the sprayed dilutions were dried, conidia of Blumeria graminis f sp. hordei were inoculated to the plants by shaking off.

Puccinia recondita = assay: Test Example E: Brown rust on wheat; settings: for Test E control value (brown rust on wheat): preventive, control value class; for Test E (control value class, brown rust on wheat): in vivo
Text: [Test Example E] Brown Rust on Wheat

Plasmopara viticola = assay: Test Example G: Downy mildew on vine; settings: for Test G control value (downy mildew on vine): 250 ppm spray (2.5 ml/pot), preventive, control value class; for Test G (control value class): 250 ppm spray; for Test G control value: 250 ppm sprayed before inoculation; for Test G (control value class, downy mildew on vine): 250 ppm, sprayed 2.5 ml/pot before inoculation
Text: [Test Example G] Downy Mildew on Vine
Seeds of a test plant (grape variety: Neomuscat) were planted followed by cultivating until three to four first leaves appeared. […] After the sprayed dilutions were dried, a zoosporangia suspension (1-2×10^4 zoosporangia/ml) of Plasmopara viticola was inoculated to the plants by spraying.

[2] = gray mold on tomato, Botrytis cinerea, 250 ppm spray
[3] = powdery mildew on barley, 250 ppm spray
[4] = brown rust on wheat, Puccinia recondita, 250 ppm spray
[5] = downy mildew on vine, Plasmopara viticola, 7-10 days after inoculation
[6] = Downy mildew on vine, 7-10 days after inoculation
[7] = evaluated 7-10 days after inoculation

Compound: CCn1c(-c2c(F)cccc2F)c(-c2cc(OCC3CC3)ccc2Cl)ccc1=O [Compound 212]
- Test B control value (gray mold on tomato) (Botrytis cinerea; 250 ppm spray): H (H shows more than 50% of control values)
- Test C control value (Alternaria sooty spot on cabbage) (Alternaia brassicicola; 250 ppm spray): H (H shows more than 50% of control values)
- Test D control value (powdery mildew on barley) ([1]; 250 ppm spray): H (H shows more than 50% of control values)
- Test E control value (brown rust on wheat) (Puccinia recondita; 250 ppm spray): H (H shows more than 50% of control values)
- Test G control value (downy mildew on vine) (Plasmopara viticola; 7-10 days after inoculation): H (H shows more than 50% of control values)

Compound: CCn1c(-c2c(F)cccc2F)c(-c2cc(Cl)ccc2F)cc(Cl)c1=O [Compound 523]
- Test B (control value class) (Botrytis cinerea; [2]): H (H shows more than 50% of control values)
- Test C (control value class) (Alternaia brassicicola; 250 ppm spray): L (L shows 50% or less of control values)
- Test D (control value class) [1, 3]: L (L shows 50% or less of control values)
- Test E (control value class) (Puccinia recondita; [4]): H (H shows more than 50% of control values)
- Test G (control value class) (Plasmopara viticola; [5]): L (L shows 50% or less of control values)

Compound: CCOc1ccc(Cl)c(-c2cc(Cl)c(=O)n(CC)c2-c2c(F)cc(OC)cc2F)c1 [Compound 796]
- Test B (control value class) (Botrytis cinerea; Gray mold on tomato, control value=100{1-(n/3)}): H (H shows more than 50% of control values)
- Test C (control value class) (Alternaia brassicicola; control value=100{1-(n/3)}): H (H shows more than 50% of control values)
- Test D (control value class) ([1]; Powdery mildew on barley, control value=100{1-(n/3)}): H (H shows more than 50% of control values)
- Test E (control value class) (Puccinia recondita; Brown rust on wheat, control value=100{1-(n/3)}): H (H shows more than 50% of control values)
- Test G (control value class) (Plasmopara viticola; Downy mildew on vine, 2.5 ml/pot, evaluated 7-10 days after inoculation): H (H shows more than 50% of control values)

Compound: CCn1c(-c2c(F)cccc2F)c(-c2cc(F)ccc2F)ccc1=O [Compound 478]
- Test B (control value class) (Botrytis cinerea; [2]): H (H shows more than 50% of control values)
- Test C (control value class) (Alternaia brassicicola; 250 ppm spray): H (H shows more than 50% of control values)
- Test D (control value class) [1, 3]: H (H shows more than 50% of control values)
- Test E (control value class) (Puccinia recondita; [4]): H (H shows more than 50% of control values)
- Test G (control value class) (Plasmopara viticola; [5]): H (H shows more than 50% of control values)

Compound: CCn1c(-c2c(F)cccc2Cl)c(-c2cc(OC)cc(OC)c2Br)ccc1=O [Compound 151]
- Test B control value (Botrytis cinerea; Gray mold on tomato): H (H shows more than 50% of control values)
- Test C control value (Alternaia brassicicola): H (H shows more than 50% of control values)
- Test D control value ([1]; Powdery mildew on barley): H (H shows more than 50% of control values)
- Test E control value (Puccinia recondita; Brown rust on wheat): H (H shows more than 50% of control values)
- Test G control value (Plasmopara viticola; [6]): H (H shows more than 50% of control values)

Compound: CCN1C(=S)CCC(c2cc(OC)ccc2Cl)=C1c1c(F)cccc1F [Compound 581]
- Test B (control value class, gray mold on tomato) (Botrytis cinerea): H (H shows more than 50% of control values)
- Test C (control value class, Alternaria sooty spot on cabbage) (Alternaia brassicicola): H (H shows more than 50% of control values)
- Test D (control value class, powdery mildew on barley) [1]: H (H shows more than 50% of control values)
- Test E (control value class, brown rust on wheat) (Puccinia recondita): H (H shows more than 50% of control values)
- Test G (control value class, downy mildew on vine) (Plasmopara viticola; [7]): H (H shows more than 50% of control values)

Compound: CCOc1cc(F)c(-c2c(-c3ccccc3Cl)ccc(=O)n2CC)c(F)c1 [Compound 685]
- Test B (control value class, gray mold on tomato) (Botrytis cinerea): H (H shows more than 50% of control values)
- Test C (control value class, Alternaria sooty spot on cabbage) (Alternaia brassicicola): H (H shows more than 50% of control values)
- Test D (control value class, powdery mildew on barley) [1]: H (H shows more than 50% of control values)
- Test E (control value class, brown rust on wheat) (Puccinia recondita): H (H shows more than 50% of control values)
- Test G (control value class, downy mildew on vine) (Plasmopara viticola; [7]): H (H shows more than 50% of control values)

Compound: CCn1c(-c2c(F)cccc2F)c(-c2cc(OC3CCCC3)ccc2Cl)ccc1=O [Compound 287]
- Test B control value (gray mold on tomato) (Botrytis cinerea; 250 ppm spray): H (H shows more than 50% of control values)
- Test C control value (Alternaria sooty spot on cabbage) (Alternaia brassicicola; 250 ppm spray): H (H shows more than 50% of control values)
- Test D control value (powdery mildew on barley) ([1]; 250 ppm spray): H (H shows more than 50% of control values)
- Test E control value (brown rust on wheat) (Puccinia recondita; 250 ppm spray): L (L shows 50% or less of control values)
- Test G control value (downy mildew on vine) (Plasmopara viticola; 7-10 days after inoculation): H (H shows more than 50% of control values)

Compound: Cn1c(-c2c(F)cccc2F)c(-c2cc(F)cc(F)c2F)ccc1=O [Compound 439]
- Test B (control value class) (Botrytis cinerea; [2]): H (H shows more than 50% of control values)
- Test C (control value class) (Alternaia brassicicola; 250 ppm spray): H (H shows more than 50% of control values)
- Test D (control value class) [1, 3]: H (H shows more than 50% of control values)
- Test E (control value class) (Puccinia recondita; [4]): H (H shows more than 50% of control values)
- Test G (control value class) (Plasmopara viticola; [5]): L (L shows 50% or less of control values)

Compound: CCn1c(-c2c(F)cccc2F)c(-c2cccc(Cl)c2F)cc(C)c1=O [Compound 493]
- Test B (control value class) (Botrytis cinerea; [2]): H (H shows more than 50% of control values)
- Test C (control value class) (Alternaia brassicicola; 250 ppm spray): H (H shows more than 50% of control values)
- Test D (control value class) [1, 3]: H (H shows more than 50% of control values)
- Test E (control value class) (Puccinia recondita; [4]): H (H shows more than 50% of control values)
- Test G (control value class) (Plasmopara viticola; [5]): L (L shows 50% or less of control values)

Compound: O=c1c(Cl)cc(-c2cccc(Cl)c2F)c(-c2c(F)cccc2F)n1CC(F)F [Compound 495]
- Test B (control value class) (Botrytis cinerea; [2]): L (L shows 50% or less of control values)
- Test C (control value class) (Alternaia brassicicola; 250 ppm spray): L (L shows 50% or less of control values)
- Test D (control value class) [1, 3]: L (L shows 50% or less of control values)
- Test E (control value class) (Puccinia recondita; [4]): L (L shows 50% or less of control values)
- Test G (control value class) (Plasmopara viticola; [5]): L (L shows 50% or less of control values)

Compound: O=c1ccc(-c2cccc(Cl)c2Cl)c(-c2c(F)cccc2F)n1CC(F)F [Compound 366]
- Test B control value (gray mold on tomato) (Botrytis cinerea; 250 ppm spray): H (H shows more than 50% of control values)
- Test C control value (Alternaria sooty spot on cabbage) (Alternaia brassicicola; 250 ppm spray): H (H shows more than 50% of control values)
- Test D control value (powdery mildew on barley) ([1]; 250 ppm spray): H (H shows more than 50% of control values)
- Test E control value (brown rust on wheat) (Puccinia recondita; 250 ppm spray): H (H shows more than 50% of control values)
- Test G control value (downy mildew on vine) (Plasmopara viticola; 7-10 days after inoculation): L (L shows 50% or less of control values)

Compound: Cn1c(-c2c(F)cccc2F)c(-c2cc(OC[Si](C)(C)C)ccc2Cl)ccc1=O [Compound 261]
- Test B control value (gray mold on tomato) (Botrytis cinerea; 250 ppm spray): L (L shows 50% or less of control values)
- Test C control value (Alternaria sooty spot on cabbage) (Alternaia brassicicola; 250 ppm spray): H (H shows more than 50% of control values)
- Test D control value (powdery mildew on barley) ([1]; 250 ppm spray): L (L shows 50% or less of control values)
- Test E control value (brown rust on wheat) (Puccinia recondita; 250 ppm spray): L (L shows 50% or less of control values)
- Test G control value (downy mildew on vine) (Plasmopara viticola; 7-10 days after inoculation): L (L shows 50% or less of control values)

Compound: CCn1c(-c2c(F)cc(OC)cc2F)c(-c2cc(F)c(F)cc2F)ccc1=O [Compound 638]
- Test B (control value class, gray mold on tomato) (Botrytis cinerea): H (H shows more than 50% of control values)
- Test C (control value class, Alternaria sooty spot on cabbage) (Alternaia brassicicola): H (H shows more than 50% of control values)
- Test D (control value class, powdery mildew on barley) [1]: H (H shows more than 50% of control values)
- Test E (control value class, brown rust on wheat) (Puccinia recondita): H (H shows more than 50% of control values)
- Test G (control value class, downy mildew on vine) (Plasmopara viticola; [7]): H (H shows more than 50% of control values)

Compound: COc1cc(OC)c(Br)c(-c2ccc(=O)n(C)c2-c2c(F)cccc2Br)c1 [Compound 184]
- Test B control value (Botrytis cinerea; Gray mold on tomato): H (H shows more than 50% of control values)
- Test C control value (Alternaia brassicicola): H (H shows more than 50% of control values)
- Test D control value ([1]; Powdery mildew on barley): H (H shows more than 50% of control values)
- Test E control value (Puccinia recondita; Brown rust on wheat): H (H shows more than 50% of control values)
- Test G control value (Plasmopara viticola; [6]): H (H shows more than 50% of control values)

Compound: Cc1cc(-c2cccc(F)c2F)c(-c2c(F)cccc2F)n(C)c1=O [Compound 538]
- Test B (control value class) (Botrytis cinerea; [2]): H (H shows more than 50% of control values)
- Test C (control value class) (Alternaia brassicicola; 250 ppm spray): H (H shows more than 50% of control values)
- Test D (control value class) [1, 3]: H (H shows more than 50% of control values)
- Test E (control value class) (Puccinia recondita; [4]): H (H shows more than 50% of control values)
- Test G (control value class) (Plasmopara viticola; [5]): H (H shows more than 50% of control values)
